# Test results published in the supplement of paper PMC7826260.
# This is one part of the list. The data describe in vitro nicking of single-stranded DNA by Rep domains (1 h at 37 °C, 3 µM enzyme); the outer parts of the 90-letter strands are left off. A value is the log2 ratio of uncut reads to the pool without enzyme; uncut sequences lie near 0, cut ones below; no hit call is given. The scaling is to total reads; values above 0 arise when much of the pool is cut.
# System: T1, Rep nickase domain of tomato golden mosaic virus
# T1 sequence (protein, residues 1-124, tag omitted): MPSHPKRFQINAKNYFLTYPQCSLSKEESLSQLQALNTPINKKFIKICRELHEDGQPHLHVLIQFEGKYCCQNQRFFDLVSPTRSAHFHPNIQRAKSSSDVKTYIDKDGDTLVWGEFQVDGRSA
# Assay: uncleaved DNA left, log2 of reads against the no-enzyme library (log2 ratio); higher = less cleavage (more negative = more Rep cleavage of the k-mer); sequences stand for … in CTCGTCCG…ACCGGAGA
# Experimental: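 A pool of 90-nt single-stranded DNAs with seven random bases just before the constant AC of the nick site (name = the seven bases) was cut by 3 µM recombinant His6-SUMO-tagged Rep nickase domain (300 nM DNA, 50 mM HEPES pH 8.0, 50 mM NaCl, 1 mM MnCl2, 1 h, 37 °C, three replicates). Uncut DNA was amplified and sequenced.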
row,Sequence,uncleaved DNA left (log2)
1,GACATGC,0.0102
2,CCGCTTA,0.143
3,CGTATCC,-0.131
4,TTCGAAC,-0.0758
5,GATAATA,-0.00174
6,CAAGATT,-0.383
7,GCCCGTA,0.0992
8,GGACTGC,-0.0556
9,GCTGTAC,0.0121
10,TACGGCT,-0.092
11,GGCAATT,0.00139
12,TTACGCC,-0.05
13,TTGCTTC,-0.212
14,AGTCACT,-0.0238
15,GCGTGGG,0.164
16,AAGTGTT,-0.063
17,GTATCCT,0.178
18,GATGTTT,-0.0438
19,CTCACAC,-0.161
20,ATACCAA,-0.0671

row,Sequence,uncleaved DNA left (log2)
1,ACTGGGT,0.0768
2,ATCCGGG,0.0772
3,AAAGAAT,0.286
4,GTTATGA,0.0501
5,TTAGCGG,0.0856
6,ACCTACT,0.0307
7,GGTCCGG,0.0217
8,GTACGCA,0.0413
9,ATCATGG,0.107
10,GGGCCCG,-0.0689
11,GTCGACC,0.0519
12,GATGGGC,-0.00843
13,GCGCTAT,-0.177
14,CCGGATG,0.0923
15,TGGAGCG,0.0707
16,CCTTATT,-0.319
17,GGAATCC,-0.0144
18,AGCTTCC,-0.0355
19,ATCTTTC,0.0134
20,CCCTGTG,-0.0461
